In the supplement of paper PMC10126150:
Sequences with one replicate were seen in a single cluster, so their values are uncertain.

Test system: ATP
Test: switch fluorescence ratio, 500 uM ATP over buffer (Cy3 cluster intensity, sum of 5 cycles each) (fold (ratio)); higher = stronger signal-on switching upon ATP binding; sequences stand for … in TCGTCGGCAGCGTCAGATGTGTATAAGAGACAGTTTTTTTTTTTTTTTTTTTTTTTTT…TC
Settings: aptamer strand: ATP DNA aptamer (quencher-CACCTGGGGGAGTATTGCGGAGGAAGG + anchor), 100 nM annealed; ATP concentration: 500 uM; one replicate
Outline: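 For every switch-domain sequence, the fluorescence ratio is the mean of per-cluster values, each being summed target-cycle Cy3 intensity over summed buffer-cycle Cy3 intensity. Clusters outside 100-1000 RFU were excluded. On a modified Illumina MiSeq flow-cell, the Cy3-labelled switching-strand clusters were annealed to 100 nM quencher-labelled ATP aptamer, imaged in selection buffer and then after 15 min with 500 uM ATP at 22 °C. Five such cycles were run, with NaOH stripping and re-annealing between them.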
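Note: ATP exposure 15 min at 22 °C before imaging.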

Row | Sequence | switch fluorescence ratio
1 | TTGTCTTGAG | 0.962
2 | TGGGTGATGC | 1.06
3 | GCCGAAATG | 1.07
4 | GATCAGGGCG | 0.988
5 | GTGTTTACGT | 0.98
6 | AGAGCTGAAG | 0.991
7 | AGGAGGTATA | 1
8 | CAATAATTAC | 1.06
9 | GGACCAAGTT | 1.04
10 | GTCAGGGCGC | 0.963
11 | CGGGAGTACA | 0.964
12 | AAGAGCTCTA | 0.997
13 | ACGTAAGTGG | 1.08
14 | AACCTAAAGA | 1.02
15 | AAGCCCTAT | 0.949
16 | GCCACTTGTG | 0.919
17 | CCTCTTTATG | 1.07
18 | GCCGTGAGAC | 2.12
19 | TTCTTCAACA | 1.01
20 | CAGTTATAAG | 0.989
21 | AATAACCGC | 1.19
22 | TTAGCCGAAT | 1.01
23 | TTTTGCGAGC | 1

Row | Sequence | switch fluorescence ratio
24 | ATTACTCACG | 1.46
25 | CGGGTAGCGG | 0.993
26 | GGTAATTGGC | 1.03
27 | TCCAGTTTGT | 0.999
28 | CTCGTGGTTG | 0.988
29 | CCATGTACAG | 1.07
30 | GAAATTAGAG | 0.966
31 | TTCACGT | 1.05
32 | TGCCGTTTAG | 1.03
33 | TCTTACTCAG | 1.2
34 | TGATATGATA | 0.983
35 | CCACGGTCCG | 0.986
36 | GAACATTCTA | 0.973
37 | ATATTTTGT | 0.956
38 | CTATGACTAG | 0.973
39 | AGGATGGCTT | 1.03
40 | GTGGTGGTAG | 0.999
41 | TATTGGTCCA | 0.982
42 | TCCCGTAGAA | 1.16
43 | CACATCGAAT | 0.997
44 | TGTGTTACTG | 1.01
45 | CGTAGTGGGC | 1.07
46 | TAGAACGACA | 1.05

Row | Sequence | switch fluorescence ratio
47 | CTGCGGAGGG | 0.969
48 | GGCTTTCAGA | 0.955
49 | GGACCGGGAA | 1.03
50 | CCCAGAGATG | 1.11
51 | TGCGATTAAT | 0.988
52 | TAGAATGTTG | 0.978
53 | GGCCTTTTAT | 0.986
54 | CAGCCTCTGC | 1.03
55 | GTTTGTTA | 1.02
56 | CAGGTAGGG | 1
57 | GCTTTTTCTC | 0.983
58 | GTGGGGAGC | 1.03
59 | GGTGTTCGTC | 0.983
60 | ACTTCTATAC | 1.63
61 | GCCTTGTCGC | 0.987
62 | ACTTGTACGG | 1.23
63 | ATAGCATTTC | 1.38
64 | AAAAGCACGT | 0.981
65 | GGAGGGCCTA | 1
66 | TGCCAAAGTG | 1.03
67 | GGCCGTAGTG | 1
68 | AGGAAATAGA | 0.989
69 | ACTGCATTTT | 1.04

Row | Sequence | switch fluorescence ratio
70 | CCCTGTCACG | 1.1
71 | TGGGCCTTTT | 0.991
72 | TTGTGAAAAT | 0.948
73 | GTATAACAGC | 1.01
74 | AATGGAAGT | 1.05
75 | GTATGAATAG | 0.936
76 | CTCGTGCGTG | 1.01
77 | AATGCTCGTG | 1.08
78 | GAGGCACG | 1.08
79 | ACACAGGGCA | 1.05
80 | TTTGACGACC | 1.15
81 | TGATCTTGCA | 0.967
82 | TTTGCCCGAA | 0.972
83 | CGAATGACAT | 1.01
84 | CGAGAGGGAA | 1.02
85 | AATGATCCGT | 1.02
86 | CAATGCTGAA | 0.993
87 | GGCCGTGTTG | 1.02
88 | GAGTCACAAA | 0.974
89 | CGTTGGTAGG | 1.17
90 | TGATATCTCA | 1.02
91 | GATATTATCG | 1.03
92 | AACCGGGTTT | 0.989

Row | Sequence | switch fluorescence ratio
93 | ATGGGTCCGA | 0.949
94 | GATATTCGGA | 1.04
95 | GCTTTTATGT | 0.96
96 | AGTTCATTTA | 1.02
97 | GTTTACTAAT | 0.985
98 | TTTGAGGCAA | 3.6
99 | TGAAAAAACG | 1.02
100 | CTAGCGGGTA | 1.01
101 | CGATGAGCCT | 0.999
102 | CGTCCTTGAA | 0.988
103 | ACAGAATGGA | 1.03
104 | GCAAGACAGC | 1.4
105 | CAAGCGGGTC | 1.02
106 | GCCGGATACT | 1
107 | ACTTGGCTT | 1.02
108 | TAGATATAAT | 0.997
109 | AAGTGTTTAG | 0.961
110 | GAGTATAGTG | 0.971
111 | CCGCTCCTTA | 1.37
112 | ATACTTTG | 1.06
113 | CTGTAAAAGG | 1.01
114 | GCTTCGGCAC | 1
115 | ACAGTGCGTG | 0.985

Row | Sequence | switch fluorescence ratio
116 | CTTACCGTA | 1.09
117 | GCGTAGGATC | 1.08
118 | CCAAACCGAG | 1.79
119 | TTTAGCCACG | 0.968
120 | TATAAGGCAA | 1.06
121 | GTAACGGGTG | 1.12
122 | GTATATAGCT | 0.97
123 | GGCGTGATCG | 1.02
124 | TACGACGTTT | 1.29
125 | GACGCGGACC | 2.74
126 | TAGGCAACT | 1.06
127 | CAGGCGGGCG | 0.993
128 | GATGTAAGTC | 0.979
129 | TAGGTTAGGG | 0.993
130 | TTTTATCAAA | 1.03
131 | TTGACTTCTC | 1.01
132 | CAAAGTGCGT | 0.982
133 | TTGCATCAGT | 0.997
134 | AGAGTAAACG | 0.959
135 | TACGTAGTCG | 1.05
136 | AAGCTAGTTG | 0.963
137 | CCCTTCAGC | 1.05
138 | TAACGTAAG | 1.01

Row | Sequence | switch fluorescence ratio
139 | CACACCGGCG | 1.03
140 | GATGACCGTC | 1.05
141 | GGCCGAGTGT | 0.981
142 | AAAATCTAGA | 0.997
143 | TTCATGGCGT | 1.03
144 | GTCATGTATC | 1
145 | TGTGGTTTGC | 1.03
146 | GATCATTTCT | 0.961
147 | GGCCGGAAGT | 0.99
148 | GAGTCCGTTA | 1.21
149 | CAAAGTCTAG | 1.03
150 | TCAGACAGGT | 1.01
151 | ACCGGGGGGC | 1.3
152 | CAGCGGCAAA | 1.42
153 | TATAGGCATG | 1.09
154 | TAATCGAGGC | 0.949
155 | GGTGAGTTGC | 1.03
156 | GTTATCGT | 0.975
157 | GCAAATCAGG | 1.02
158 | CTGCCATAA | 1.33
